Results reported in paper PMC7817014.
Results are given in words; binding and its absence hold for the method and conditions named. In cells and extracts the contact can be indirect. Some entries that bind do so weakly or less than the wild type. Tags and fused reporters may be left off the sequences shown.

Columns and labels:
Test in all cases: co-IP; HEK293T cells co-transfected for 24 h, lysed in RIPA buffer; immunoprecipitation with mouse monoclonal antibodies to HA, MYC or GFP and protein A-agarose beads; immunoblot with rabbit polyclonal antibodies to HA, MYC or GFP
[1] = target: T1, MYC epitope-tagged CCDC151 (mouse) (UniProt Q8BSN3)
T1 sequence: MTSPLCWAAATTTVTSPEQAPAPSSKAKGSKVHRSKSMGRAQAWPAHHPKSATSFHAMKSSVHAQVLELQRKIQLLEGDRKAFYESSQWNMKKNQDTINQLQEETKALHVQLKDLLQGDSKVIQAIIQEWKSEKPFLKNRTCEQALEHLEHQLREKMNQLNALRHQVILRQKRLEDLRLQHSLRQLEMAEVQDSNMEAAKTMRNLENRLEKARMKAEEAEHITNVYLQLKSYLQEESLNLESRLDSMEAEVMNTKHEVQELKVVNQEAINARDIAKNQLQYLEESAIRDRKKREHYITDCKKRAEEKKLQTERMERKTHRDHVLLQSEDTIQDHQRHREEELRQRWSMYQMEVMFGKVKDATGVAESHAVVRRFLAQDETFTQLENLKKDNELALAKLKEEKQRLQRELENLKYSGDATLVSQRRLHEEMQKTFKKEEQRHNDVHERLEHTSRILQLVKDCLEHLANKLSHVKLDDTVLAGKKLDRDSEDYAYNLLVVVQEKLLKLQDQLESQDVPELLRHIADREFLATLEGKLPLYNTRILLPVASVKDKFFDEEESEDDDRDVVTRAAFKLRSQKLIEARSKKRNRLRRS

[2] = target: T2, MYC epitope-tagged DNAIC1 (mouse) (UniProt Q8C0M8)
T2 sequence: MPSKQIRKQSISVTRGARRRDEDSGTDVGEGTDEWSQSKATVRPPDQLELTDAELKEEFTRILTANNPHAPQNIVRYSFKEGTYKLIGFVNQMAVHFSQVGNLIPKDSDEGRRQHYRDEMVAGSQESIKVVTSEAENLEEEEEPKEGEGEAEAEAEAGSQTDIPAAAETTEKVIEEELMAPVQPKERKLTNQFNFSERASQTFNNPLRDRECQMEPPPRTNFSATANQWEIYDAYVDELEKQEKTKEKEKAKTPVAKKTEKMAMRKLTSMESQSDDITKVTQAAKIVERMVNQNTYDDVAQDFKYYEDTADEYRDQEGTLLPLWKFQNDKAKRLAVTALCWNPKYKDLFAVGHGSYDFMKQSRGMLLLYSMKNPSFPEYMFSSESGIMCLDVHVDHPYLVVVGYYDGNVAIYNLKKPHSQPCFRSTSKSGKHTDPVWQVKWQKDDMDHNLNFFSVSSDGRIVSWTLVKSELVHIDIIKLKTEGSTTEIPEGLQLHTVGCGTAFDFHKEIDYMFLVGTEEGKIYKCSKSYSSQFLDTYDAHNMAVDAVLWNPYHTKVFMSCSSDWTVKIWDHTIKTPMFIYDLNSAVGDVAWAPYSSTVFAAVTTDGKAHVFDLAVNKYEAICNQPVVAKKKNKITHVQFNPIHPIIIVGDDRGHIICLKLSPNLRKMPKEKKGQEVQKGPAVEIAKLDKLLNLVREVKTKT

[3] = target: T3, MYC epitope-tagged TTC25 (mouse) (UniProt Q9D4B2)
T3 sequence: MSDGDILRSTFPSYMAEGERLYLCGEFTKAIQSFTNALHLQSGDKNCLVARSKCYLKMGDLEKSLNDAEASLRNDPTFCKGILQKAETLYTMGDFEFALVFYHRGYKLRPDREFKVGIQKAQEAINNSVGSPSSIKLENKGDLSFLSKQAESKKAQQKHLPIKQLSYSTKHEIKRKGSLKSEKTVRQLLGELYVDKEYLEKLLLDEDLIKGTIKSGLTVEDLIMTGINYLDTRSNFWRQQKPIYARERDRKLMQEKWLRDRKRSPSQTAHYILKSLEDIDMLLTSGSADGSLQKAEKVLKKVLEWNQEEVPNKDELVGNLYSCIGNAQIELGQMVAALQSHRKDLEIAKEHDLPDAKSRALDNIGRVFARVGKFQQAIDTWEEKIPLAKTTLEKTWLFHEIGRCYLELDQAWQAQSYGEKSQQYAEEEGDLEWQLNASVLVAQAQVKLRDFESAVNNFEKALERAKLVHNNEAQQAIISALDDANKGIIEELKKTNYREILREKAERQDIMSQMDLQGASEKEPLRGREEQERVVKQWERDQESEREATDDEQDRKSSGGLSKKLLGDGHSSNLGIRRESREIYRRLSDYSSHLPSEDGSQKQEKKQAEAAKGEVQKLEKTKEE

[4] = target: T4, GFP-tagged DNAH11 N-terminus fragment 1001-1700 aa (mouse) (UniProt E9Q7N9)
T4 sequence: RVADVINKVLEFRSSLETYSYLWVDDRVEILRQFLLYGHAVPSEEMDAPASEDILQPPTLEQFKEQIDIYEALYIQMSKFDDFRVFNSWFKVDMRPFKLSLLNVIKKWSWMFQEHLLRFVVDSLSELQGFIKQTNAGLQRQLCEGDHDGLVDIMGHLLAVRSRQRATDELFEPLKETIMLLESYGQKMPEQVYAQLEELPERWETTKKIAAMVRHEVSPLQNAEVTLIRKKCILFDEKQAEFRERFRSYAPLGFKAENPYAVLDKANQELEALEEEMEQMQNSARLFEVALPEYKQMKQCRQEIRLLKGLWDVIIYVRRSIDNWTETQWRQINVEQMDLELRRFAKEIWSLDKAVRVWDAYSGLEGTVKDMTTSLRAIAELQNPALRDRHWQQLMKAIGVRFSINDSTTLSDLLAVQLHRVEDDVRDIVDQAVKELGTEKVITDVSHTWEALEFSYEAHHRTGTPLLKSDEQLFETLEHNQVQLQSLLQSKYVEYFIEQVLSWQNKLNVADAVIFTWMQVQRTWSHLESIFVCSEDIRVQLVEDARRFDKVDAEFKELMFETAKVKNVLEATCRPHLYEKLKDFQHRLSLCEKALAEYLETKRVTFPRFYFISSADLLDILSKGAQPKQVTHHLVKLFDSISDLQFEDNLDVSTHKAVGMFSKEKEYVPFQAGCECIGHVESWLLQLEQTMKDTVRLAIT

[5] = target: T5, MYC epitope-tagged DNAIC2 (mouse) (UniProt A2AC93)
T5 sequence: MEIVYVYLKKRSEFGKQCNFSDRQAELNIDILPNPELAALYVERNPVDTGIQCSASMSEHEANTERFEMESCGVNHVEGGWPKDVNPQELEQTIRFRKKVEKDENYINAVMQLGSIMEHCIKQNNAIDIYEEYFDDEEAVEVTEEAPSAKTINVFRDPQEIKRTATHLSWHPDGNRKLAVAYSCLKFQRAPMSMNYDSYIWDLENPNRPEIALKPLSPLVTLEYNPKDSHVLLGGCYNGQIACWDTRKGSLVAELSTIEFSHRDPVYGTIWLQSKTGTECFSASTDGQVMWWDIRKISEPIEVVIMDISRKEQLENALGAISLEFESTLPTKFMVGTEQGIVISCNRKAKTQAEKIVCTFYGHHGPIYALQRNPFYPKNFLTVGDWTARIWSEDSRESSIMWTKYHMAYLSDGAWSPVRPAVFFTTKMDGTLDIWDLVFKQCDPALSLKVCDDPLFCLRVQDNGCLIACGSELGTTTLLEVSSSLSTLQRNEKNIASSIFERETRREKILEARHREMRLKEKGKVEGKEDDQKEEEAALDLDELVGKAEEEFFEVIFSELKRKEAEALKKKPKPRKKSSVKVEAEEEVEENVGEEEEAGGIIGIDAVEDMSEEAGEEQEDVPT

[6] = target: T6, GFP-tagged DNAH11 N-terminus fragment 1-1000 aa (mouse) (UniProt E9Q7N9)
T6 sequence: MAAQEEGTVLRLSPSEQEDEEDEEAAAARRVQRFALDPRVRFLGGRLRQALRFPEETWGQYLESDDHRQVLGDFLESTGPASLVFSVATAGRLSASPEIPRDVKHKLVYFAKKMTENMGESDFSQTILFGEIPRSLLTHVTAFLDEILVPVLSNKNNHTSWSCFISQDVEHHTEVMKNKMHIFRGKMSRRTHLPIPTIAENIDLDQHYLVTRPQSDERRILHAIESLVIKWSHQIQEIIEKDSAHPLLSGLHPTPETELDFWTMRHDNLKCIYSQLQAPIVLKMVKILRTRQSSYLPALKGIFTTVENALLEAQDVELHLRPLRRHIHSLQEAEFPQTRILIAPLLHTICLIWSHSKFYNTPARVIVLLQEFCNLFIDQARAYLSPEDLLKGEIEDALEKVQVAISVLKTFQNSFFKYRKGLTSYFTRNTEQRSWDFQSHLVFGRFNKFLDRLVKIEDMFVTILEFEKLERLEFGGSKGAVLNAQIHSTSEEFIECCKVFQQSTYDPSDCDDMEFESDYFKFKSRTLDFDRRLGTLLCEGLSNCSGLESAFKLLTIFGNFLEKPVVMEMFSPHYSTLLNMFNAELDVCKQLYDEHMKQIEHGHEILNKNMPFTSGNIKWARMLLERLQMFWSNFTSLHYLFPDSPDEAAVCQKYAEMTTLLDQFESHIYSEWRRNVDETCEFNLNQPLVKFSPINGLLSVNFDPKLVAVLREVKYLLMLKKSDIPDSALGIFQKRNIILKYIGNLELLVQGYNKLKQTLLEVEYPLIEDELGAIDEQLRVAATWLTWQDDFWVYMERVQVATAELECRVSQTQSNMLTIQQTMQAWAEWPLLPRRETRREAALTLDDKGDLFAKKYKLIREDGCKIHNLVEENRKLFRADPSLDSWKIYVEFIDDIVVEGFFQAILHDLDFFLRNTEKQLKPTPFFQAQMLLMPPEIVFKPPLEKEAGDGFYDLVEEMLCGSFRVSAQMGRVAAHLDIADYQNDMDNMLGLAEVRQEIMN

binding [1]: no binding
binding [2]: binds
binding [3]: binds
binding [4]: binds
binding [5]: binds
binding [6]: binds
B1: HA-tagged CFAP53 (protein, UniProt Q9D439 1-514)
chain: MYSQQFGTVPREFKGPTPKAVIIRAKPPKAQRAEQHLKRIQRSYHKYHTTLASIKSNEENRLKCDWIQRNNHKTFDSLVQARVQDAMQGFVINTEERRNKLRELLASEENEYFSEMQLKGETIEEKKDKMRERTKLLREKKEKERQEFVAEKLDQQFRERCEELRTKLASIHEKKVVEERNAQIEFNKELKRQKLVEEHLFARLWEEDRLAKERREAQEEKRQRELVQNTRLGLDAQVTSIQAQRQGARRMKEEEARILEQNKAQIKREDEQEKLQKQKRRQETRSSLKKAVQDKIESMQREYREDLDLNMKLVGRALQDLQDEADKKKQKREEMGREQKIYNDYLMQRREEEKAQEKELNRLLEDIKAKKLAEKDRELALQRAARKQLMNEVMNTRKLQVQERLQRKLREQEELALHEQRISESLKVLHQEDMEDFARRCALAEEYRNQLQMQIAHQQQAREAEKEEERQEFEAGLAANKACLDKIQRILSENQALSQNVHPMRRGYPDKPPL
